Test results published in the supplement of paper PMC12217912.
The list shows a part of the results. The full chains were built here from the parent and the listed change. Inactive controls read about 0.05.

B1: TEV protease; numbered along this chain (parent)
chain: MGESLFKGPRDYNPISSSICHLTNESDGHTTSLYGIGFGPFIITNKHLFRRNNGTLVVQSLHGVFKVKDTTTLQQHLVDGRDMIIIRMPKDFPPFPQKLKFREPQREERICLVTTNFQTKSMSSMVSDTSCTFPSGDGIFWKHWIQTKDGQCGSPLVSTRDGFIVGIHSASNFTNTNNYFTSVPKNFMELLTNQEAQQWVSGWRLNADSVLWGGHKVFMVKPEEPFQPVKEATQL

Variants of: B1
Experiment: raw area under fraction-flipped curve 0-4 h after induction (AUC4h, not background-subtracted), DNA-recorder readout of cleavage of the substrate (dimensionless); higher = more cleavage of the substrate by the protease variant
Details: temperature: 34 °C; time window: 0-4 h after rhamnose induction
Experimental: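 In vivo DNA recorder in E. coli TOP10(DE3) ΔrhaA at 34 °C. Each TEVp single-site mutant (parent TEVp 0) is paired with a single-site variant of the 7-mer TEVs (canonical ENLYFQ|S). The substrate sits between flexible linkers in a Bxb1-sfGFP-TEVs-SsrA fusion, so cleavage stabilises Bxb1 and speeds flipping of a recombination array, read by NGS. The value is the raw area under the fraction-flipped curve over 0-4 h after rhamnose induction (AUC4h), with ≥20 reads per time point. It is not background-subtracted; inactive controls average about 0.047.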
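Further: Bxb1 expression induced with 0.2% (w/v) L-rhamnose at OD600 near 0.5, cultures sampled hourly, flipped fraction per protease–substrate barcode pair counted by paired-end Illumina sequencing.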

Row | Variant | area with substrate CNLYFQS | area with substrate DNLYFQS | area with substrate FNLYFQS | area with substrate HNLYFQS | area with substrate INLYFQS | area with substrate LNLYFQS | area with substrate MNLYFQS | area with substrate TNLYFQS | area with substrate WNLYFQS | area with substrate GNLYFQS | area with substrate KNLYFQS | area with substrate PNLYFQS | area with substrate SNLYFQS | area with substrate YNLYFQS | area with substrate NNLYFQS | area with substrate QNLYFQS | area with substrate VNLYFQS | area with substrate RNLYFQS
1 | Q146V | 0.0824 | 0.0735 | 0.068 | 0.0723 | 0.0525 | 0.0537 | 0.0634 | 0.0679 | 0.0611 | – | – | – | – | – | – | – | – | –
2 | V220E | 0.0527 | 0.0658 | 0.0615 | 0.0496 | – | 0.0536 | 0.092 | 0.0688 | 0.0656 | 0.0759 | 0.0755 | 0.0736 | 0.0548 | 0.0676 | – | – | – | –
3 | D79S | 0.0701 | 0.0816 | – | 0.0588 | – | 0.0619 | 0.059 | 0.0602 | – | 0.0657 | 0.0517 | 0.0644 | 0.0688 | 0.0592 | 0.0678 | 0.0783 | 0.0628 | –
4 | Q227W | 0.0331 | 0.0629 | – | 0.0455 | – | – | – | 0.0662 | 0.0375 | 0.0722 | 0.062 | 0.0671 | 0.0493 | – | – | – | 0.057 | –
5 | I15P | 0.0835 | 0.0851 | 0.0653 | 0.0663 | – | 0.0607 | 0.0649 | 0.0572 | – | 0.0717 | 0.062 | – | 0.0521 | 0.0546 | 0.0556 | 0.0656 | – | 0.0359
6 | C111D | 0.073 | 0.0824 | 0.057 | 0.0622 | 0.0639 | 0.0579 | 0.0592 | – | 0.053 | 0.0498 | 0.0604 | 0.0573 | – | 0.0643 | – | – | 0.0349 | –
7 | I139V | 0.0681 | 0.105 | 0.0648 | 0.0446 | 0.0649 | 0.0733 | 0.0722 | – | 0.0626 | – | 0.0685 | 0.0609 | – | 0.0639 | 0.0604 | – | 0.0546 | –
8 | F133P | 0.035 | 0.0593 | 0.049 | 0.0453 | 0.0506 | 0.0673 | 0.0568 | 0.0568 | 0.06 | – | 0.0421 | 0.0564 | 0.0554 | 0.0614 | – | 0.0613 | – | –
9 | F133L | 0.0704 | 0.0746 | – | 0.0684 | 0.0492 | 0.0633 | 0.0646 | 0.0738 | 0.0437 | 0.0729 | – | – | 0.0676 | 0.0881 | – | – | – | –
10 | Q198T | 0.0727 | 0.0854 | – | 0.0576 | – | 0.048 | – | 0.0704 | – | – | 0.0747 | 0.0712 | 0.05 | 0.0571 | 0.0579 | – | 0.0703 | –
11 | L205H | 0.0498 | 0.0847 | – | – | – | 0.0634 | – | – | 0.0538 | 0.0647 | – | – | – | – | 0.06 | 0.0585 | – | –
12 | T181F | 0.0555 | 0.0807 | – | 0.0581 | 0.0685 | 0.0793 | 0.0601 | 0.0732 | – | 0.0693 | – | 0.0512 | 0.0524 | – | – | – | – | –
13 | V183A | 0.0598 | 0.0615 | 0.0531 | 0.0411 | 0.0463 | 0.0606 | 0.0621 | – | 0.0646 | – | 0.0592 | 0.0723 | – | – | 0.0802 | 0.0331 | 0.0573 | –
14 | Q197V | 0.0618 | 0.0636 | 0.0565 | 0.0445 | – | 0.0569 | 0.06 | 0.0575 | 0.0855 | 0.0927 | 0.058 | 0.0911 | 0.0644 | 0.0675 | 0.0907 | – | 0.0557 | 0.0538
